Reference: PubChem BioAssay AID686979 (National Center for Advancing Translational Sciences (NCATS), 2013)
“And” between values parts separate entries of the source, which are not always exact repeats. Identical values can stand only once. The campaign covered roughly 420,000 compounds. About 50,000 (12%) were called active. The shares of active, inactive and inconclusive entries below differ from those in the screen. The call rests on the fitted dose curve; in most records, active means well fitted inhibition curve with a large enough effect; inconclusive means small, poorly fitted or top-dose-only effect; inactive means flat fitted curve, though single readings scatter. Where the call is inconclusive, the potency comes from a doubtful curve fit.

test: qHTS for Inhibitors of human tyrosyl-DNA phosphodiesterase 1 (TDP1): qHTS in cells in presence of CPT; conditions: chicken DT40 Tdp1-/-;hTDP1 cells + 20 nM CPT, ATP luminescence, 48 h; activity change, negative = growth inhibition: at 46.2 µM (top of the series) unless noted; further: nearly all actives have a fitted effect of over 55% in size
In short: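 Cell growth measured by CellTiter-Glo luminescence after a minimum 48 h, 37 C compound exposure with 20 nM CPT in Tdp1-knockout DT40 cells stably expressing hTDP1, seeded 400/well; qHTS titration format.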
On the % scale 0 is the no-effect control and ±100 the full control effect; potency means the concentration at half of the fitted maximal effect; tags describe the fitted curve by direction and shape.

SMILES	activity change, negative = growth inhibition	Potency
CC(CNS(=O)(=O)c1ccccc1)(c1ccccc1)N1CCOCC1 (centres undefined)	inactive: -8.42%	–
COc1ccc(NC(=S)NC(=O)c2ccc3c(c2)OCCO3)cc1	–	inconclusive: 23.1 µM [inhibitor, single point]
COc1cc(/C=C2\C(=N)N3N=C(S(C)(=O)=O)SC3=NC2=O)ccc1OS(=O)(=O)c1ccc(C)cc1	–	inconclusive: 29.1 µM [inhibitor, single point]
O=C(COc1cccc2ccccc12)Nc1nc2ccccc2[nH]1	–	inconclusive: 29.1 µM [inhibitor, single point]
Cc1ccc(Cl)cc1NC(=O)C(Cc1ccccc1)N1C(=O)C2C3CCC(C3)C2C1=O (centres undefined)	–	inconclusive: 29.1 µM [inhibitor, single point]
CCOC(=O)C1(C)CCCCCN1C(=O)c1ccc(SC(F)(F)F)cc1 (centres undefined)	–	inconclusive: 16.4 µM [inhibitor, single point]
COc1cccc(OCc2cc(C(=O)N(C)C3CCOCC3)no2)c1	inactive: 15.8%	–
Clc1ccc(-c2nc(N3CCCCC3)nc3ccccc23)cc1	–	inconclusive: 20.6 µM [inhibitor, single point]
Cc1cccc(C(=O)c2c[nH]cc2-c2ccccc2)c1	inactive: -25.3%	–
CC(C)N1CCC(=NNC(=O)c2cccs2)CC1	inactive: -4.16%	–
COc1cc(CNC2CCCCCC2)cc(OC)c1OC	inactive: -8.93%	–
CCc1ccc(OCC2c3cc(OC)c(OC)cc3CCN2C(=O)COc2ccccc2)cc1 (centres undefined)	–	inconclusive: 18.4 µM [inhibitor, single point]
O=C(N/N=C1\CCc2ccccc21)c1ccncc1	inactive: 3.27%	–
Cc1ccc(CCNC(=O)C2CCN(Cc3nc(-c4ccccc4C)oc3C)CC2)cc1	–	active: 13 µM
O=C(NCc1csc(-c2cccs2)n1)Nc1ccc(F)cc1F	–	inconclusive: 11.6 µM [inhibitor, partial curve, poor fit]
Cc1cccc(CN2C(=O)N/C(=C/c3ccc(C)s3)C2=O)c1	–	active: 20.6 µM
Cc1ccc(N(Cc2cc(=O)[nH]c3ccccc23)C(=O)c2ccco2)cc1	–	inconclusive: 29.1 µM [inhibitor, single point]
O=C(NC(=S)NC1CCCCCCCCCCC1)c1cccnc1	–	inconclusive: 29.1 µM [inhibitor, single point]
Cc1ccc(N2C(=O)CSC23C(=O)N(CC(=O)Nc2ccc(C(C)C)cc2)c2ccccc23)cc1C (centres undefined)	–	inconclusive: 29.1 µM [inhibitor, single point]
Cc1ccccc1N=C/C=C1/C=C(c2ccccc2)OC(C)(C)O1	–	inconclusive: 32.6 µM [inhibitor, single point]
CCN1C(=O)S/C(=C/c2ccc(Oc3ccc([N+](=O)[O-])cn3)c(OC)c2)C1=O	–	inconclusive: 18.4 µM [inhibitor, single point]
O=C(CSc1nc(Nc2ccccc2)nc(N2CCOCC2)n1)NC1CCCCC1	–	inconclusive: 9.2 µM [inhibitor, partial curve]
CCCCOc1ccc(N(CC(=O)NCC2CCCO2)C(=O)CCC(=O)Nc2cc(C)ccn2)cc1 (centres undefined)	–	inconclusive: 13 µM [inhibitor, partial curve]

SMILES	activity change, negative = growth inhibition	Potency
CSc1nc2c(c(=O)n1Cc1ccccc1)SC(C)C2 (centres undefined)	–	inconclusive: 29.1 µM [inhibitor, single point]
O=C(NC(c1ccccc1)C(Cl)(Cl)Cl)c1ccccc1 (centres undefined)	–	active: 20.6 µM
CCOC(=O)C1=CN(C)C=C(C(=O)OCC)C1c1ccsc1	inactive: -24.8%	–
Cc1coc2cc3oc(=O)c(CC(=O)NCCc4ccccc4)c(C)c3cc12	–	inconclusive: 13 µM [inhibitor, partial curve]
CC(C)(CO)NCc1cccc(OCc2ccc(Cl)cc2)c1	–	inconclusive: 20.6 µM [inhibitor, single point]
CC(C)C[C@@H](CN1CCC[C@@H]1CN1C(=S)NC[C@@H]1Cc1ccc(O)cc1)N1C[C@H](Cc2ccc(O)cc2)N(CC2CCCCC2)C1=S	–	active: 18.4 µM
CCOc1ccc(CCNC(=O)CCc2cn(Cc3ccc(F)cc3)c3ccccc23)cc1	–	inconclusive: 29.1 µM [inhibitor, single point]
CC(C)(C)CNC(=O)C1(C)CCN1C(=O)c1ccccc1CCc1ccccc1 (centres undefined)	–	active: 20.6 µM
CC(C)Cn1c(N)c(C(=O)COC(=O)CCc2nc3ccccc3s2)c(=O)n(C)c1=O	–	inconclusive: 23.1 µM [inhibitor, single point]
Cc1ccc(Cn2cc(CN3CC(N4CCN(Cc5cccc(C)c5)CC4)CS3(=O)=O)nn2)cc1 (centres undefined)	–	inconclusive: 25.9 µM [inhibitor, single point]
CC(=O)Nc1ccc(S(=O)(=O)N2CCNC(=O)C2)cc1	inactive: 3.85%	–
CCOCCCNC(=O)c1ccc(CN2CCc3ccccc3C2)cc1	–	inconclusive: 20.6 µM [inhibitor, single point]
COc1cc(OC)c(S(=O)(=O)Nc2ccccc2N2CCOCC2)cc1NC(C)=O	inactive: -2.02%	–
O=C(Nc1ccc(F)c(F)c1)C1=COCCO1	inactive: -5.27%	–
CCOc1ccc(CN(C)C(=O)c2cc3ccccc3o2)cc1OC	inconclusive: -36.7% [inhibitor]	–
CCCn1c2ccccc2c2cnn(CC(=O)NCCCN3C(C)CCCC3C)c(=O)c21 (centres undefined)	–	inconclusive: 25.9 µM [inhibitor, single point]
O=C(CCCCCCCC(=O)c1ccccc1)c1ccccc1	–	inconclusive: 16.4 µM [inhibitor, partial curve]
COc1ccccc1C(=O)Nc1ccc2c(c1)CCCN2C(=O)c1cccs1	–	inconclusive: 29.1 µM [inhibitor, single point]
C[C@H]1CCCCO[C@H](CN(C)C(=O)C2CCCCC2)[C@@H](C)CN([C@@H](C)CO)C(=O)c2cc(NC(=O)NC3CCCCC3)ccc2O1	–	active: 20.6 µM
Cc1cccc(N(CC(=O)NC2CCCCC2)C(=O)Cn2nnc(-c3ccc(C)o3)n2)c1	–	inconclusive: 0.461 µM [inhibitor, single point]
CCO[C@@H]1OC(C(=O)NCc2nc3ccccc3[nH]2)=C[C@H](c2cn(C(C)=O)c3ccccc23)[C@H]1CCCO	–	inconclusive: 29.1 µM [inhibitor, single point]
COc1cc(S(=O)(=O)N2CCN(Cc3ccc4c(c3)OCO4)CC2)c(C)cc1C	–	active: 14.6 µM
COc1ccc(OC)c(NC(=O)c2cnn(-c3ccc(C)cc3)c2C2CCNCC2)c1	–	active: 20.6 µM

SMILES	activity change, negative = growth inhibition	Potency
Cc1cn(Cc2ccccc2Cn2cc(C)c(=O)[nH]c2=O)c(=O)[nH]c1=O	inactive: -6.16%	–
CCc1cccc(C)c1NC(=O)C1CCCN(S(C)(=O)=O)C1 (centres undefined)	inactive: 5.67%	–
Cc1ccc(-c2csc(NCCc3nc4cc(Cl)c(Cl)cc4n3CCOCCO)n2)cc1	–	inconclusive: 29.1 µM [inhibitor, single point]
COc1cc(C=C2C(=O)C=CC2=O)ccc1O	–	active: 0.164 µM
O=C(Nc1ccc2nc3n(c(=O)c2c1)CCCCC3)C(=O)N1CCN(c2ccccc2F)CC1	–	inconclusive: 18.4 µM [inhibitor, single point]
CCCn1c(SCC(=O)N2N=C3/C(=C/c4ccc(OC)cc4)CCCC3C2c2ccc(OC)cc2)n[nH]c1=O (centres undefined)	–	inconclusive: 29.1 µM [inhibitor, single point]
Cc1ccc(-n2nnnc2SC(C)C(=O)Nc2ccc(Cl)cn2)cc1 (centres undefined)	–	inconclusive: 7.31 µM [inhibitor, full curve, poor fit]
COc1cc(NC(=O)CSc2nnc3c(C)cc4cc(C)cc(C)c4n23)c(C(=O)O)cc1OC	inactive: 10.2%	–
CC(C)[C@H](CN1CCC[C@H]1CN1C(N)=NC[C@H]1C(C)C)N1C[C@@H](Cc2ccccc2)N(CCCC2CCCC2)C1=N	–	inconclusive: 25.9 µM [inhibitor, single point]
COc1ccc(-c2cnnn2-c2ccc(NC(=O)c3ccc(S(=O)(=O)N4CCCCC4)cc3)cc2)cc1	–	inconclusive: 29.1 µM [inhibitor, single point]
CCCCCCCCCC(=O)NO	–	inconclusive: 33.5 µM [inhibitor, single point] and inconclusive: 21.1 µM [inhibitor, single point]
CC(C)CC(=O)Nc1c(C(=O)N2CCN(c3ccccc3)CC2)oc2ccccc12	–	active: 14.6 µM
COc1ccc2cc(C=O)n(C)c2c1	inactive: -4.28%	–
C[C@H]1CN([C@@H](C)CO)C(=O)c2cccc(NC(=O)Nc3ccc(C(F)(F)F)cc3)c2O[C@@H]1CN(C)C(=O)Nc1ccc(F)cc1	–	active: 5.17 µM
COc1ccc(Cl)cc1NC(=O)CCc1nnc2ccc(N3CCN(C)CC3)nn12	inactive: 0.757%	–
COc1ccc(NS(=O)(=O)c2ccc(N3CCCCC3)c(NC(=O)C(C)NC(N)=O)c2)cc1 (centres undefined)	–	inconclusive: 8.2 µM [inhibitor, partial curve]
CCCn1ncc(CN2CCC(n3nccc3NC(=O)c3ccccc3Cl)CC2)c1C	inactive: 8.38%	–
CCc1ccc(NC(=O)C(C)OC(=O)C2CCC(=O)N2)cc1 (centres undefined)	inactive: -1.54%	–
CCc1nc2c(OCc3ccc(Cl)cc3)cccn2c1N(C)C(=O)c1ccc2c(c1)OCO2	–	inconclusive: 29.1 µM [inhibitor, single point]
Cc1ccccc1N(C(=O)Cc1c[nH]c2ccccc12)C(C(=O)NC1CCCCC1)c1ccco1 (centres undefined)	–	active: 20.6 µM
O=C1CCCCC1C(=O)c1ccccc1 (centres undefined)	inactive: 10.3%	–
COc1ccc(-n2c(SCC(=O)Nc3ccc(C(N)=O)cc3)nc3c([nH]c4ccccc43)c2=O)cc1OC	–	inconclusive: 29.1 µM [inhibitor, single point]
CCS(=O)(=O)N1Cc2cc(C(=O)NCCOC)nc(-c3cccc(-c4ccncc4)c3)c2[C@@H]1CCO	inactive: -13.9%	–
